Holding throughout (experiment): co-IP
In assay [1] the target is Full-length NSP4 of RV-SA11, expressed from pcDNA6/V5-His B (simian rotavirus strain SA11) (UniProt A2T3Q0).
For assay [2], the target named is T1, Viperin (virus inhibitory protein, endoplasmic reticulum-associated, interferon inducible) (human (endogenous in HT-29)) (UniProt Q8WXG1).
T1 sequence: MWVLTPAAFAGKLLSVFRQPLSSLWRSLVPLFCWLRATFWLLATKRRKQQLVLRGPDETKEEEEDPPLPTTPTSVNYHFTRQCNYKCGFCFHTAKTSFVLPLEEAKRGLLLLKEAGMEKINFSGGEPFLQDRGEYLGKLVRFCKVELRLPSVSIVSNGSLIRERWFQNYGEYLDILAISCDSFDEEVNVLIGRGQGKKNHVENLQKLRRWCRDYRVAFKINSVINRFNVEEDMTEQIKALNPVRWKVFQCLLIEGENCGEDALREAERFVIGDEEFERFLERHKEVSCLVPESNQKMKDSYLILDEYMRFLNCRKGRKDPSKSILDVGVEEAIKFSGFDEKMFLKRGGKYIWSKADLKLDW

The target of assay [3] is FLAG-tagged viperin ΔN-210 (lacking both an N-terminal domain and a radical SAM domain) (human) (UniProt Q8WXG1).
The target of assay [4] is FLAG-tagged viperin ΔC-319 (lacking both a radical SAM domain and a C-terminal domain) (human) (UniProt Q8WXG1).
In assay [5] the target is T2, FLAG-tagged full-length viperin (wild type) (human) (UniProt Q8WXG1).
T2 sequence: T1 sequence

Assay [6] has as its target T3, FLAG-tagged viperin ΔN-42 (lacking an N-terminal domain) (human) (UniProt Q8WXG1).
T3 sequence: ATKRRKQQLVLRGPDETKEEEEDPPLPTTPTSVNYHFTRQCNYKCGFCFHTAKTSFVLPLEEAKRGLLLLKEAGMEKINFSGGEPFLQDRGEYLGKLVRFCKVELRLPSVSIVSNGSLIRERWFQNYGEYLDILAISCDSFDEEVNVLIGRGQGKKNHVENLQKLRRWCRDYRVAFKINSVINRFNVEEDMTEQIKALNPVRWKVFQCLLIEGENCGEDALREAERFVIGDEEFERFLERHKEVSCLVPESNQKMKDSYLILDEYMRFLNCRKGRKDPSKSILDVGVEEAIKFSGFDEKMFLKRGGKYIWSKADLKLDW

The target in assay [7] is FLAG-tagged viperin ΔC-151 (lacking a C-terminal domain) (human) (UniProt Q8WXG1).
The target of assay [8] is Rotaviral non-structural protein 4 (NSP4) of RV-SA11, from infection (simian rotavirus strain SA11) (UniProt A2T3Q0).

Results are given in words; binding and its absence hold for the method and conditions named. In cells and extracts the contact can be indirect. Some binding calls cover weakened binding; strength is not graded here. For part of these data: Sequences can lack the tags named with a protein.

On to “FLAG-tagged viperin ΔC-151 (lacking a C-terminal domain) (from UniProt Q8WXG1 1-210) (domain or fragment)”, for which, in assay [1], the binding entry is “no binding”.

Consider “FLAG-tagged viperin ΔN-210 (lacking both an N-terminal domain and a radical SAM domain) (from UniProt Q8WXG1 211-361) (domain or fragment)”, for which the binding entry in assay [1] is on record as “no binding”.

With “Rotaviral non-structural protein 4 (NSP4) of RV-SA11, from infection (from UniProt A2T3Q0 1-175)”, the binding result in assay [2] is listed as “binds”.

In the case of “FLAG-tagged viperin ΔC-319 (lacking both a radical SAM domain and a C-terminal domain) (from UniProt Q8WXG1 1-42) (domain or fragment)”, in assay [1], the binding result was “no binding”.

For “Full-length NSP4 of RV-SA11, expressed from pcDNA6/V5-His B (from UniProt A2T3Q0 1-175)”, the binding entry is “no binding” in assay [3]; “no binding” in assay [4]; “binds” in assay [5]; “binds” in assay [6]; “no binding” in assay [7].

B1: Viperin (virus inhibitory protein, endoplasmic reticulum-associated, interferon inducible) (protein, UniProt Q8WXG1 1-361)
chain: T1 sequence
Take B1: the binding entry in assay [8] was “binds”.

B2: FLAG-tagged full-length viperin (wild type) (protein, UniProt Q8WXG1 1-361)
chain: T1 sequence
As for B2, the binding entry in assay [1] was “binds”.

B3: FLAG-tagged viperin ΔN-42 (lacking an N-terminal domain) (domain or fragment, UniProt Q8WXG1 43-361)
chain: T3 sequence
In the case of B3, the binding result in assay [1] is “binds”.
